# ± gives the standard deviation of the averaged measurements. Whole data set: some 4,100 sequences, median “relative kcat/Km (krel) vs genomic leader AAAGAU” near 1.7, cut for the highest 2% near 6.5. The list shows a part of the results, in another mix than the full data.
# Molecular target: T1, E. coli RNase P holoenzyme (M1 P RNA + rnpA protein) (UniProt P0A7Y8)
# T1 sequence: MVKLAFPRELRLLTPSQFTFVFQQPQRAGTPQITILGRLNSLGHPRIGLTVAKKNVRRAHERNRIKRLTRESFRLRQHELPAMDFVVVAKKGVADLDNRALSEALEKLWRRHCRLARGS
# Assay: relative kcat/Km (krel) vs genomic leader AAAGAU (relative (reference leader = 1)); higher = faster RNase P cleavage
# Description: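 HTS-Kin: a pool of ptRNA-Met (21C construct) with all 4096 combinations of 5' leader nucleotides N(-6) to N(-1) was processed in vitro by E. coli RNase P (P RNA + rnpA/C5 protein) under multiple-turnover conditions at 37 C, pH 8, 17.5 mM MgCl2. Residual substrate was Illumina-sequenced at several fractions reacted, and relative kcat/Km (krel) was computed by internal competition kinetics, calibrated to the genomic leader (AAAGAU = 1). The listed hexamer is the varied N(-6)..N(-1) leader (DNA letters), and it sits between a fixed 5' stem-loop flank (GCAUGCACGAAAGUGCGUGCUAUGAA) and the mature tRNA-Met starting GGCUACGUAGCUCAGUUGG. Two technical replicates are averaged.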
# [1] = fraction of substrate reacted: ~13-16% (15.68% repeat 1, 13.17% repeat 2)
# [2] = fraction of substrate reacted: ~26-29% (28.66% repeat 1, 26.4% repeat 2)
# [3] = fraction of substrate reacted: ~9-10% (9.79% repeat 1, 9.1% repeat 2)
sequence,measurement,setting,value
AATGTC,relative kcat/Km,[1],1.21 ± 0.24
same,relative kcat/Km,[2],1.45 ± 0.34
AACACG,relative kcat/Km,[1],0.759 ± 0.32
same,relative kcat/Km,[2],2.2 ± 0.65
TGAACA,relative kcat/Km,[3],1.16 ± 0.43
same,relative kcat/Km,[1],1.34 ± 0.41
same,relative kcat/Km,[2],1.69 ± 0.24
GACAGT,relative kcat/Km,[2],2.04 ± 1.8
AGCGCC,relative kcat/Km,[3],1.8 ± 0.34
same,relative kcat/Km,[1],2.6 ± 0.7
same,relative kcat/Km,[2],3.41 ± 1
AGACGA,relative kcat/Km,[3],2.74 ± 1.4
same,relative kcat/Km,[1],2.42 ± 0.11
same,relative kcat/Km,[2],3.91 ± 1.5
GAGGCA,relative kcat/Km,[1],1.04 ± 1
same,relative kcat/Km,[2],0.75 ± 0.044
GCCTGT,relative kcat/Km,[2],1.64 ± 0.79
CAGAGC,relative kcat/Km,[3],1.09 ± 0.4
same,relative kcat/Km,[1],1.56 ± 0.32
same,relative kcat/Km,[2],1.76 ± 0.23
ACTTTT,relative kcat/Km,[3],1.91 ± 0.69
same,relative kcat/Km,[1],2.24 ± 0.19
same,relative kcat/Km,[2],3.25 ± 1.3
CATATA,relative kcat/Km,[3],2.3 ± 0.95
same,relative kcat/Km,[1],2.374 ± 0.0066
same,relative kcat/Km,[2],3.14 ± 1.2
AACAAC,relative kcat/Km,[3],2.99 ± 0.85
same,relative kcat/Km,[1],3.22 ± 0.17
same,relative kcat/Km,[2],4.45 ± 1.8
TTTCCC,relative kcat/Km,[3],1.91 ± 0.45
same,relative kcat/Km,[1],1.91 ± 0.14
same,relative kcat/Km,[2],2.47 ± 0.92
TCCGTT,relative kcat/Km,[3],1.84 ± 0.88
same,relative kcat/Km,[1],2.08 ± 0.3
same,relative kcat/Km,[2],2.78 ± 1.2
ATATAG,relative kcat/Km,[3],2.16 ± 1.9
same,relative kcat/Km,[1],1.77 ± 0.48
same,relative kcat/Km,[2],3.88 ± 1.4
TTTACT,relative kcat/Km,[3],2.32 ± 0.92
same,relative kcat/Km,[1],2.36 ± 0.14
same,relative kcat/Km,[2],3.43 ± 1.1
TCAAGA,relative kcat/Km,[3],2.15 ± 0.26
same,relative kcat/Km,[1],2.33 ± 0.33
same,relative kcat/Km,[2],3.47 ± 1.4
TACCCA,relative kcat/Km,[3],1.41 ± 0.63
same,relative kcat/Km,[1],1.94 ± 0.16
same,relative kcat/Km,[2],3.27 ± 1.1
TAAACT,relative kcat/Km,[3],1.46 ± 1
same,relative kcat/Km,[1],1.02 ± 0.1
same,relative kcat/Km,[2],1.67 ± 0.7
CTACAC,relative kcat/Km,[3],2.87 ± 1.7
same,relative kcat/Km,[1],3 ± 0.59
same,relative kcat/Km,[2],4.74 ± 1.4
AGAAAG,relative kcat/Km,[3],1.38 ± 1.3
same,relative kcat/Km,[1],1.14 ± 0.7
same,relative kcat/Km,[2],2.2 ± 0.47
GCGTGG,relative kcat/Km,[2],0.939 ± 0.64
ATATTG,relative kcat/Km,[1],0.335 ± 0.075
same,relative kcat/Km,[2],1.66 ± 0.11
TCTGCA,relative kcat/Km,[3],1.56 ± 1.2
same,relative kcat/Km,[1],1.61 ± 0.14
same,relative kcat/Km,[2],2.27 ± 0.57
CATAGA,relative kcat/Km,[3],2.55 ± 0.11
same,relative kcat/Km,[1],3.96 ± 1.3
same,relative kcat/Km,[2],5.03 ± 2.4
TACCGA,relative kcat/Km,[3],2.83 ± 0.7
same,relative kcat/Km,[1],4.89 ± 1.1
GTGTAT,relative kcat/Km,[3],2.27 ± 0.1
same,relative kcat/Km,[1],2.36 ± 0.42
same,relative kcat/Km,[2],3.07 ± 1.1
CGAGCC,relative kcat/Km,[3],1.44 ± 0.36
same,relative kcat/Km,[1],1.17 ± 0.82
same,relative kcat/Km,[2],1.77 ± 0.032
GATCGC,relative kcat/Km,[3],2.14 ± 0.16
same,relative kcat/Km,[1],2.81 ± 0.81
same,relative kcat/Km,[2],4.01 ± 1.8
CGAAGT,relative kcat/Km,[2],1.2 ± 0.67
GGAATT,relative kcat/Km,[3],1.51 ± 0.21
same,relative kcat/Km,[1],1.6 ± 0.24
same,relative kcat/Km,[2],2.16 ± 1
CAATTC,relative kcat/Km,[3],1.87 ± 0.93
same,relative kcat/Km,[1],1.98 ± 0.16
same,relative kcat/Km,[2],2.4 ± 0.83
TGGGGT,relative kcat/Km,[2],1.83 ± 0.45
GGTCCT,relative kcat/Km,[3],1.77 ± 0.79
same,relative kcat/Km,[1],1.83 ± 0.89
same,relative kcat/Km,[2],2.22 ± 0.74
TCTCCT,relative kcat/Km,[3],2.25 ± 0.95
same,relative kcat/Km,[1],1.9 ± 0.053
same,relative kcat/Km,[2],2.5 ± 0.3
GACGTC,relative kcat/Km,[3],2.13 ± 1
same,relative kcat/Km,[1],2.6 ± 1.1
same,relative kcat/Km,[2],3.4 ± 1.2
AAAATC,relative kcat/Km,[3],2.07 ± 0.94
same,relative kcat/Km,[1],1.14 ± 0.28
same,relative kcat/Km,[2],1.37 ± 0.15
AAGGCA,relative kcat/Km,[1],1.05 ± 0.51
same,relative kcat/Km,[2],0.678 ± 0.092
AGCTTT,relative kcat/Km,[3],2.79 ± 1.2
same,relative kcat/Km,[1],2.71 ± 0.49
same,relative kcat/Km,[2],4.09 ± 1.6
CCCCTT,relative kcat/Km,[3],2.65 ± 0.41
same,relative kcat/Km,[1],2.88 ± 0.43
same,relative kcat/Km,[2],3.36 ± 1.2
GCTGTT,relative kcat/Km,[3],1.12 ± 0.26
same,relative kcat/Km,[2],0.627 ± 0.24
TTACAC,relative kcat/Km,[3],4.14 ± 1.9
same,relative kcat/Km,[1],4.92 ± 0.61
same,relative kcat/Km,[2],6.4 ± 2.5
ATATGA,relative kcat/Km,[3],2.93 ± 0.85
same,relative kcat/Km,[1],3.32 ± 0.72
same,relative kcat/Km,[2],5.34 ± 1.6
CTCCGT,relative kcat/Km,[1],1.79 ± 1.2
same,relative kcat/Km,[2],2.01 ± 1.7
CGTAAC,relative kcat/Km,[3],2.79 ± 0.54
same,relative kcat/Km,[1],4.08 ± 1.1
same,relative kcat/Km,[2],5.46 ± 2.1
GCACCG,relative kcat/Km,[3],0.695 ± 0.23
same,relative kcat/Km,[2],0.963 ± 0.12
ACTGTA,relative kcat/Km,[3],1.45 ± 0.27
same,relative kcat/Km,[1],1.29 ± 0.12
same,relative kcat/Km,[2],1.12 ± 0.057
ACGTGC,relative kcat/Km,[3],1.66 ± 0.76
same,relative kcat/Km,[1],1.41 ± 1.2
same,relative kcat/Km,[2],2.28 ± 1.5
TAGCCT,relative kcat/Km,[3],1.54 ± 0.86
same,relative kcat/Km,[1],1.95 ± 0.32
same,relative kcat/Km,[2],2.55 ± 0.89
GACTTC,relative kcat/Km,[3],3.65 ± 0.53
same,relative kcat/Km,[1],4.38 ± 2.1
same,relative kcat/Km,[2],6.22 ± 3.3
GCTACC,relative kcat/Km,[3],1.6 ± 0.53
same,relative kcat/Km,[1],1.34 ± 0.49
same,relative kcat/Km,[2],2.31 ± 0.92
GCTTTA,relative kcat/Km,[3],1.33 ± 0.25
same,relative kcat/Km,[1],1.52 ± 0.15
same,relative kcat/Km,[2],1.68 ± 0.49
GTAACA,relative kcat/Km,[3],1.33 ± 0.56
same,relative kcat/Km,[1],1.4 ± 0.41
same,relative kcat/Km,[2],1.99 ± 1.2
TGTTTC,relative kcat/Km,[3],2.54 ± 0.42
same,relative kcat/Km,[1],3.17 ± 0.83
same,relative kcat/Km,[2],4.55 ± 1.5
CTCTTG,relative kcat/Km,[3],2.31 ± 1.9
same,relative kcat/Km,[1],1.64 ± 0.35
same,relative kcat/Km,[2],3.11 ± 0.5
AATTCG,relative kcat/Km,[1],0.511 ± 0.23
same,relative kcat/Km,[2],1.23 ± 0.13
GGGAGG,relative kcat/Km,[1],0.486 ± 0.34
same,relative kcat/Km,[2],1.63 ± 0.17
GCTTCT,relative kcat/Km,[3],2.03 ± 0.7
same,relative kcat/Km,[1],1.955 ± 0.018
same,relative kcat/Km,[2],2.42 ± 0.6
GCTATA,relative kcat/Km,[3],1.48 ± 0.45
same,relative kcat/Km,[1],1.55 ± 0.19
same,relative kcat/Km,[2],2.16 ± 0.77
TCGTCA,relative kcat/Km,[3],2.78 ± 1.8
same,relative kcat/Km,[1],2.51 ± 0.12
same,relative kcat/Km,[2],3.63 ± 1.3
GTTTAC,relative kcat/Km,[3],3.75 ± 0.76
same,relative kcat/Km,[1],4.65 ± 0.88
same,relative kcat/Km,[2],7.14 ± 3
ATAAAA,relative kcat/Km,[3],1.66 ± 0.62
same,relative kcat/Km,[1],1.91 ± 0.26
same,relative kcat/Km,[2],2.9 ± 1.3
AATCTA,relative kcat/Km,[3],1.56 ± 0.87
same,relative kcat/Km,[1],1.78 ± 0.38
same,relative kcat/Km,[2],1.87 ± 0.29

# From the supplement of paper PMC9433436
